Experimental findings from PMC9975078 (Molecular cell, 2023) are described below.

This assay deals with His-RPA1 (recombinant RPA1^WT) (human, UniProt P27694). Put plainly: pull-down.
Sequence of UniProt P27694 (P27694 whole entry): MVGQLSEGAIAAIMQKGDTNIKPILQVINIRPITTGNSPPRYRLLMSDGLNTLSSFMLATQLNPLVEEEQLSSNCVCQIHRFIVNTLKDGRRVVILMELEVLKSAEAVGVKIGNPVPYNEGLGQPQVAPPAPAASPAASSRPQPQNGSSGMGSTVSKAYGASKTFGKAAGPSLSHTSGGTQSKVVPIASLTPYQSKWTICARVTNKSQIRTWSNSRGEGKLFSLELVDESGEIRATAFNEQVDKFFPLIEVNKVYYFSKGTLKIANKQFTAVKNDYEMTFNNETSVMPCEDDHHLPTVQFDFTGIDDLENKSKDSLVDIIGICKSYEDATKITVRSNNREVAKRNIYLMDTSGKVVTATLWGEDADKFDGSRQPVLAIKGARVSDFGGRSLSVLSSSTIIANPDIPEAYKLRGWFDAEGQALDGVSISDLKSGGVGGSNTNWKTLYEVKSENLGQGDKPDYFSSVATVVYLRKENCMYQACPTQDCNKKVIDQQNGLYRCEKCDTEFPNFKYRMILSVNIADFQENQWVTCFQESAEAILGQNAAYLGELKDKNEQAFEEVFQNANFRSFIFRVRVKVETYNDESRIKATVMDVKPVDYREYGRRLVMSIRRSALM

B1: SUMO1 protein (natural protein)
chain: not shown
Take B1: the binding result was “binds”.
